# In the supplement of paper PMC3334620:
# Whole data set: some 33,000 sequences, median “E-score (-0.5 to 0.5)” near -0.012, cut for the highest 2% near 0.27. Some of the results follow.
# Biological target: T1, Vhr1 (UniProt P40522)
# T1 sequence: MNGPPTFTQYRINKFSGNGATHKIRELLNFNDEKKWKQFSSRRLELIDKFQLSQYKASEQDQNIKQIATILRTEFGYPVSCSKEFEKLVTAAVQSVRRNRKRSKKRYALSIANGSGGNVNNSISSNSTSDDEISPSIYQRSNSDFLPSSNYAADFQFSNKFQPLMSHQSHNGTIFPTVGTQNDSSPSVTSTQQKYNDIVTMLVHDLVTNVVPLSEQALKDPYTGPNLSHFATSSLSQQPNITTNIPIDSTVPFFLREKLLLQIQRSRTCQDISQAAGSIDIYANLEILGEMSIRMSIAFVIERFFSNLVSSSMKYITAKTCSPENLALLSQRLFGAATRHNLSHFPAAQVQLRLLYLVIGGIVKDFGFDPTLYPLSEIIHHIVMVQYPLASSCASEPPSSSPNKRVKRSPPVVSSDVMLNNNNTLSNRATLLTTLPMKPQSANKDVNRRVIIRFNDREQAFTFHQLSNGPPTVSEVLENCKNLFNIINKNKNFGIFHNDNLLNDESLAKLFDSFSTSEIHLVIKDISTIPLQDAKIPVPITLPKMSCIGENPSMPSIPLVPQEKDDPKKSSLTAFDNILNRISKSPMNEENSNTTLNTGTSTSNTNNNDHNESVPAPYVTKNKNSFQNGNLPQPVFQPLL
# Test: PBM E-score (8-mer binding enrichment) (E-score (-0.5 to 0.5)); higher = stronger / more preferred TF binding; most listed sequences are background and not binding sites
# Details: protein concentration: 200 nM; construct: GST-full length
# In short: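 GST-tagged yeast TFs (full-length or DNA-binding domain) were made by PURExpress in vitro transcription/translation and applied at about 100-200 nM to universal all-10-mer Agilent arrays. The arrays were made double-stranded by primer extension, on fresh or once-stripped slides. Bound protein was detected with fluorescent anti-GST, and scans were normalised with masliner. Each ungapped eight-base word, pooled with its reverse complement, received an E-score (modified Wilcoxon-Mann-Whitney statistic) from the Universal PBM Analysis Suite.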
row,Sequence,PBM E-score
1,ATGATGGA,0.156
2,AATAGCTC,-0.0193
3,ACCGGCTG,0.229
4,CAAGCTTC,-0.235
5,ACGGAACA,0.0435
6,CCAATAAC,0.0537
7,CTTACTGC,0.0765
8,GCGACGTA,0.0109
9,ACCGCGAA,0.0978
10,CATACCCC,0.105
11,GTTATCAA,-0.02
12,GAGGCTCC,-0.11
13,TAAAGTTA,0.003
14,CCGCGACC,0.0903
15,AAATTGCC,-0.0786
16,ATGGCTCC,0.325
17,CCCGGTCG,-0.0479
18,AGCTAGAA,-0.142
19,AGCTGAGA,-0.109
20,GGACGACC,-0.215
21,CAGCAACG,0.116
22,AAACGTTC,-0.0943
23,AATCCTAG,-0.256
24,GCCTTGAA,-0.184
25,GCGGTTTA,0.0642

row,Sequence,PBM E-score
1,ATGCGATA,-0.0117
2,ATGCGAGG,-0.0121
3,CCCGCAGA,-0.0495
4,AAAACCCC,-0.217
5,TCTACACA,0.118
6,TCCCCCCA,-0.233
7,CAAATGAA,-0.0291
8,AGCCACGC,-0.0579
9,ATAGTTTG,0.205
10,AAGTTCCA,-0.168
11,CAAGGGCC,-0.201
12,AGGAGTGG,0.0494
13,CACTAGGC,0.0119
14,CACCAAAA,0.102
15,ACTACGGA,0.117
16,AACACTGC,0.0891
17,ATTCAAGC,-0.00045
18,TCTGGTCA,0.0764
19,CAATCATA,0.317
20,TAAGGGCA,-0.192
21,ACCAGGGC,-0.0996
22,ATCGGTAG,-0.0922
23,GATAAAAC,0.112
24,TACCCGGA,0.0286
25,CCGAGTCA,0.451

row,Sequence,PBM E-score
1,CCAATGGC,-0.176
2,AGTCAGCC,0.402
3,GGAAGACA,-0.00163
4,AATACCAT,0.205
5,TAGTCATA,0.356
6,AAAAGGTA,-0.158
7,ACTCCGAA,0.116
8,ACTATTAG,0.0582
9,CATGTAAA,-0.129
10,ATAAAGAA,-0.109
11,CTACCCCA,-0.0606
12,CTGATCTA,0.088
13,AGCAGCGG,0.0635
14,ACCGCTCT,-0.0964
15,CATGAATC,0.31
16,AATCGTAA,-0.0173
17,CCAGCATC,0.113
18,GAGACCGC,-0.236
19,CGCTTGTC,-0.0745
20,GTGCTGTA,0.0582
21,GGACAACA,0.135
22,ACCTTCGA,-0.0486
23,ACACGACT,0.277
24,CATCGCAA,0.097
25,GAACCTGA,0.0239

row,Sequence,PBM E-score
1,CAGCTTAA,-0.0789
2,GGAAAGTA,-0.122
3,AACTGTGA,-0.00841
4,CCCGTCAG,-0.122
5,ACCCCTCA,0.0263
6,TCACGGGA,0.0145
7,AGATACAT,0.186
8,TGACAAAA,-0.241
9,TGCGCCCA,-0.191
10,AACCAATC,0.126
11,AAGCGAGC,-0.0812
12,TGGACCCA,-0.0213
13,GGACACCC,-0.163
14,GCAAGCGC,0.0638
15,AAATGAGT,0.204
16,ACGAAAGT,-0.0941
17,AACTTCAA,-0.245
18,ATAAAACC,0.0132
19,CTACGCGA,-0.233
20,ATAAGAGA,0.0968
21,GTGAAATA,-0.0751
22,ATACATAG,0.108
23,CATGACAG,0.115
24,GAGGCGCA,-0.0794
25,AAGTGCGC,0.0126

row,Sequence,PBM E-score
1,GTATAAAC,0.18
2,GGAGCCTA,-0.137
3,CATAAGAA,0.0486
4,CTAATAGC,-0.068
5,AAATAGGC,-0.1
6,ATGTCAAG,-0.117
7,AGTATGGG,0.133
8,GAAGACCC,-0.0779
9,TAAATGGA,-0.0943
10,CCCAAATA,-0.0748
11,AATTATAA,-0.106
12,TACCTTGA,0.114
13,ATACCGAT,-0.0534
14,TAAGAAGA,-0.115
15,AAAGATGC,-0.193
16,ACCATACT,0.24
17,CGACTCCC,0.321
18,GCGAACCA,0.0587
19,CCACGCAG,0.079
20,ATGAAAGG,-0.0863
21,ATGCGATC,-0.0199
22,CATTAATC,0.126
23,GGAGGTCA,-0.163
24,AGGACCAT,0.029
25,GATCATAA,0.0899

row,Sequence,PBM E-score
1,AAACATAC,0.0876
2,AGTCCTAC,0.163
3,TCGCGGCA,-0.114
4,CCTACGGC,-0.13
5,CACGACTG,0.178
6,ACCGTTGC,-0.0641
7,CGAGCTAC,-0.0186
8,TACGGTCA,-0.00125
9,AGGTTGCG,-0.0958
10,CGCACAAA,0.119
11,ACGAACCT,-0.173
12,ATTCGGAA,-0.00853
13,CTAGTATA,0.0509
14,AGGGTACT,0.0423
15,ATCCAGCG,0.0641
16,ACTCAGAG,0.222
17,TAGACATA,0.187
18,AGACTCAT,0.353
19,AATGATGT,0.095
20,GAAGCCTC,-0.0476
21,TGAGTCCA,0.3
22,AGTTCCGG,-0.0219
23,AACTACAA,0.212
24,GCCTTACC,-0.167
25,GGTGCGGA,0.072

row,Sequence,PBM E-score
1,GCACCGTA,0.0842
2,GGTTAGGA,0.0588
3,AACCATAT,0.218
4,CGGAGCGA,0.0369
5,GGAGTAAA,0.0262
6,ATCGCGCC,0.174
7,AACAGCTT,-0.0895
8,CACCTGAC,0.261
9,ATAAGCTG,0.00054
10,ATTCGGGG,0.0714
11,CGGCTCCC,-0.105
12,CGCGCTTC,0.0933
13,CAAGTGGC,-0.134
14,GCCAAGAA,-0.126
15,TCTCAAAA,-0.143
16,ACTAGCCA,0.157
17,AAGACTCC,0.158
18,CAGCTTTA,-0.231
19,AGCGCCTA,-0.00947
20,CGGGTGTC,0.0391
21,GGGTCGGA,0.028
22,ACTGGTGG,0.0234
